Hit rate of the full screen: of about 310,000 compounds, about 2,200 (0.71%) showed an effect of 50% or more. The effect is printed as a negative number. The list shows a part of the results.
target: human ether-à-go-go-related gene (hERG) potassium channel (human, UniProt Q12809); test: primary screen, population patch clamp on CHO cells stably expressing hERG
Sequence (Q12809 whole entry, looked up): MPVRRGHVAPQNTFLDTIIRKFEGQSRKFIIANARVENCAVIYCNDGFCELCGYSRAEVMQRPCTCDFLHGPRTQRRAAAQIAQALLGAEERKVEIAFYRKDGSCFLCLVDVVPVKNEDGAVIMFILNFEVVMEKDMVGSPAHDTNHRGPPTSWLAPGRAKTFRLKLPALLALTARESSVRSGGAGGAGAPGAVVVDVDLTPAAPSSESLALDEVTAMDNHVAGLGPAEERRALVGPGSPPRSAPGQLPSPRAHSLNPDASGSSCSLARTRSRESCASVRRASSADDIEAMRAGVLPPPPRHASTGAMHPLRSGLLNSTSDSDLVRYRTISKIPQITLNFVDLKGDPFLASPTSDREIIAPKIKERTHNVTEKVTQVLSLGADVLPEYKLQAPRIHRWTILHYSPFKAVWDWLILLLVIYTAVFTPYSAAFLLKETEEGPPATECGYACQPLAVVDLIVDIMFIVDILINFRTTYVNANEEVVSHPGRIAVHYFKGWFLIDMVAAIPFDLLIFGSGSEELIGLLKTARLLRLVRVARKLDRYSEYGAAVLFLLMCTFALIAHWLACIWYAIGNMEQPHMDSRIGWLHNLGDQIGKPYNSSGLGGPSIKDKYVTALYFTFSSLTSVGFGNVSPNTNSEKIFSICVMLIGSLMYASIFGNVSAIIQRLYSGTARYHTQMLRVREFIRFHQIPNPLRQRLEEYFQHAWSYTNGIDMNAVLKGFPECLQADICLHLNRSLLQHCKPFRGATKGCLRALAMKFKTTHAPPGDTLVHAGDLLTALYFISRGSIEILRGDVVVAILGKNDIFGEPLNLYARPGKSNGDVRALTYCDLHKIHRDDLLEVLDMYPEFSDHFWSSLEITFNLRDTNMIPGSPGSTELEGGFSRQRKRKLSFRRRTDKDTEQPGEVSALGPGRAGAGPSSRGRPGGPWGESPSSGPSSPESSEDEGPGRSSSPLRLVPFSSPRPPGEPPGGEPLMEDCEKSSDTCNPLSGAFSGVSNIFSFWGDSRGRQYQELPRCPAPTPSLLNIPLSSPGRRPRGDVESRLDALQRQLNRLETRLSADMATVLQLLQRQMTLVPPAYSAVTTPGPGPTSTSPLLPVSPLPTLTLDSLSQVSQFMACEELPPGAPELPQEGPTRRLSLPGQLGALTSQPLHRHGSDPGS

Compound | hERG current change (%, negative = inhibition) at 1uM [%]
O=C(Nc1ccc(Cl)cc1)Nc1cnccn1 | 11.6
COc1ccc(NC(=O)c2ccccc2SC)c(OC)c1 | 13.8
Nc1ncnc(N(c2ccccc2)C2CCCCC2)c1[N+](=O)[O-] | 8.32
Cc1[nH]c2ccccc2c1Cc1nnc(SCc2ccccc2)o1 | 8.04
CCc1ccc(N2CC(C(=O)OCC(=O)Nc3cc(C)on3)CC2=O)cc1 (stereo not shown) | 4.2
COc1cccc(OC)c1OCCNCC1CSc2ccccc2O1.Cl (stereo not shown) | -10.8
Cc1ccc(NC(=S)Nc2ccc(F)cc2)cc1C | 10.2
CC1Cc2ccccc2N1C(=O)c1ccc2c(c1)nnn2C (stereo not shown) | 8.12
N#Cc1nc(/C=C/c2ccccc2)oc1NCCCN1CCOCC1 | 2.31
Cc1cc(-c2csc(N)n2)c(C)n1-c1ccc(Cl)c(Cl)c1 | 15.2
CCc1cccc(NC(=O)CCNS(=O)(=O)c2ccc3c(c2)oc(=O)n3C)c1 | 7.18
COC(=O)CN(c1cc(Cl)ccc1OC)S(=O)(=O)c1ccc(C)cc1 | 3.62
COc1ccc(/C=N/NC(=O)COc2ccccc2-c2ccccc2)cc1 | 10.1
COc1ccc(-c2oc3ccccc3c2C(=O)OCc2ccc([N+](=O)[O-])cc2)cc1 | 13.4
Cn1c(=O)c2c(nc(NCCCO)n2Cc2cccc(C(F)(F)F)c2)n(C)c1=O | 10.6
COc1ccccc1N(CC(=O)Nc1ccc(F)c(F)c1)S(C)(=O)=O | 15.8
CCOC(=O)N1CCN(c2ccc(C(=O)c3cccc(F)c3)cc2)CC1 | 4.15
O=C(NCc1nnc(SCC(=O)N2CCCC2)o1)c1c(F)cccc1F | 6.25
CCN(CC)C(=O)c1ccc2c(c1)C1C(Cl)C(Sc3ccccc3[N+](=O)[O-])CC1C(C(=O)O)N2 (stereo not shown) | -10.8
CCOc1nc(NC(C)C)nc(N2CC3CC(C2)c2cccc(=O)n2C3)n1 (stereo not shown) | 5.76
OC(CN1CCN(c2ccc(F)cc2)CC1)c1ccc(Cl)cc1 (stereo not shown) | 2.87
CN1CCCCC1c1ccc(-c2cccnc2)nc1.Cl (stereo not shown) | 8.58
O=S(=O)(NCC1CCCO1)c1ccc(S(=O)(=O)N2CCc3ccccc3C2)cc1 (stereo not shown) | 20
COc1nc(N(C)C)nc(N(C)c2cc(Cl)cc(Cl)c2)n1 | 8.94
COc1cc(NC(=S)NCC2CCCO2)c(OC)cc1Cl (stereo not shown) | 5.47

Reference: PMC4336329 (PLoS ONE, 2015)
